# Laboratory results: article PMC6919601, “Identification of Plasmodium dipeptidyl aminopeptidase allosteric inhibitors by high throughput screening” (PLoS ONE, 2019)
# Hit rate of the full screen: of about 110,000 compounds, about 230 (0.21%) showed an effect of 50% or more. The list shows a part of the results.
# Biological target: DPAP1 (Plasmodium falciparum, UniProt Q8IIJ9)
# Assay: primary screen, percent inhibition; read by cleavage of a fluorogenic dipeptide substrate; higher = more effect of the substance
# Set-up: species or system P. falciparum D10 trophozoite lysates; single well
# 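Further: 30 min substrate incubation versus DMSO and 10 µM JCP410 controls.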
# Chain of DPAP1 (Q8IIJ9 whole entry, looked up): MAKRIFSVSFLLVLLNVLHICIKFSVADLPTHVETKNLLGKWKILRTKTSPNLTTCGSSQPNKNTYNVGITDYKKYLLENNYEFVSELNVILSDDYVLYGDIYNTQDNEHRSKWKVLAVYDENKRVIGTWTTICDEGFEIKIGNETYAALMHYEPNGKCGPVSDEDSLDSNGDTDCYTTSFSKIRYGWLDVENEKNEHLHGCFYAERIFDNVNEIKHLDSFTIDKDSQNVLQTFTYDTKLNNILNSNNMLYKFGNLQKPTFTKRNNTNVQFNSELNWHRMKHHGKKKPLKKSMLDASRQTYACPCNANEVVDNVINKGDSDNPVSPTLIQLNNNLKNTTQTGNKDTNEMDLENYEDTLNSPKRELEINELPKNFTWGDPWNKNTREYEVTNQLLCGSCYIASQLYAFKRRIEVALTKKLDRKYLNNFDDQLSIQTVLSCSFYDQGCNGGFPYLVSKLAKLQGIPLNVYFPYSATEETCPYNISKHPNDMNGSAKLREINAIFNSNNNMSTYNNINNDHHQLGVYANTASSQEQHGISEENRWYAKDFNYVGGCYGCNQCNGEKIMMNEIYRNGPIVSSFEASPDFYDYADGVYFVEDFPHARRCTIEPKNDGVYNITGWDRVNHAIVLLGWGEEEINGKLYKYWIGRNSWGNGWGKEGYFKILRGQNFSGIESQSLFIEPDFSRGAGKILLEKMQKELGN
row,Structure (SMILES),% Inhibition @ 10 uM [%]
1,CCNC(=O)c1cc2c(=O)n3cccc(C)c3nc2n(C(C)CC)c1=N (centres unmarked),5.17
2,CCOc1ccc(N2C(=O)CC(N3CCN(c4ccccn4)CC3)C2=O)cc1 (centres unmarked),-6.36
3,Cc1ccccc1-n1nc2c(c1NC(=O)c1cccc(C(F)(F)F)c1)CS(=O)(=O)C2,-0.812
4,O=C(NCC1CCCO1)c1nnc(Cc2ccc(F)cc2)o1 (centres unmarked),-3.41
5,COc1ccccc1S(=O)(=O)Cc1ccc(C(=O)O)o1,-0.256
6,CNC(=O)CCc1nc(-c2ccc(Cl)cc2)no1,-1.35
7,CC(CS(=O)(=O)c1ccccc1)N1CCOCC1 (centres unmarked),-4.06
8,O=C(Nc1ccc2c(c1)OCCO2)c1ccc(C(=O)Nc2ccc3c(c2)OCCO3)cc1,-2.8
9,CCSC1=C(C#N)C(c2cccs2)C(C(=O)Nc2ccccc2OC)=C(C)N1 (centres unmarked),-3.74
10,CC(C)(C)NS(=O)(=O)Nc1ccccn1,7.47
11,COc1ccc(C(=O)Nc2ccc(S(=O)(=O)Nc3onc(C)c3C)cc2)cc1OC,-4.43
12,COc1cccc(NC(=O)CSc2nc3c(c(=O)n(C)c(=O)n3C)n2Cc2ccccc2F)c1,3.05
13,COc1ccccc1N(CC(=O)N1CCc2ccccc2C1)S(=O)(=O)c1ccc(C)cc1,-0.173
14,Cc1ccc(OCC(=O)Nc2ccc(F)cc2)c(Br)c1,3.83
15,O=C(c1ccc(-n2ccc3ccccc32)s1)N1CCN(c2ccccn2)CC1,-0.127
16,O=C1CSC(c2cn(-c3ccccc3)nc2-c2ccc(F)cc2)N1Cc1ccccc1 (centres unmarked),2.26
17,O=C(NCc1cccs1)c1nn2c(C(F)(F)F)cc(-c3cccs3)nc2c1Cl,-5.2
18,CCOc1ccccc1NC(=O)C(C)(C)Oc1ccc(Cl)cc1,5.66
19,CC(C)C[C@H](NC(=O)CNC(=O)c1ccccc1Cl)C(=O)NCC#N,-3.48
20,Cc1ccc2c(c1)C(SCC(=O)NCc1cccs1)CC1(CCCC1)O2 (centres unmarked),-2.72
21,Cc1cccnc1NC(=O)CCCC(=O)O,-2.26
22,CCN(CC)CCNC(=O)Cc1c(C(=O)O)n(CC)c2ccccc12,2.38
23,Clc1ccc(OCCOCCN2CCCC2)c2ccccc12,-4.91
24,COC(=O)c1ccc(C2C(C(=O)c3ccc(F)cc3)=C(O)C(=O)N2CCCC(=O)O)cc1 (centres unmarked),0.884
25,C#CCOC(=O)CCCC(=O)Nc1c(Cl)cc(Cl)cc1Cl,1.63

row,Structure (SMILES),% Inhibition @ 10 uM [%]
1,COc1cc(CNc2nc3ccccc3n2C)cc(OC)c1O,-3.52
2,CCc1ccc(CNC(=O)CN2C(=O)CSc3ncccc32)cc1,-7.02
3,CN(C)Cc1c(O)ccc2c(=O)c(Oc3ccc(Br)cc3)c(C(F)(F)F)oc12,2.95
4,CCC1CCc2nc3sc(C(=O)NCc4ccc(C)cc4)c(N)c3cc2C1 (centres unmarked),0.279
5,N#CC1=C(N)OC2=C(C(=O)CCC2)C1c1ccc(COc2ccccc2Br)o1 (centres unmarked),0.385
6,CC(C)(C)c1[nH]nc2c1C(c1c(F)cccc1Cl)C(C#N)=C(N)O2 (centres unmarked),4.52
7,CC1CCN(C2=NC(=O)/C(=C\c3ccc(Br)cc3)S2)CC1,2.64
8,COc1ccc(CN2CCN(C(=O)Cn3c(=O)c4cccn4c4cccnc43)CC2)c(OC)c1OC,-6.92
9,N=C(NCCc1c[nH]c2ccccc12)NC(=O)c1ccccc1,4.99
10,CC1(C)CC(=O)C2=C(C1)N=C1c3ccccc3C(=O)C1C2c1ccc2c(c1)OCO2 (centres unmarked),-0.171
11,NS(=O)(=O)c1ccc(NC(=O)C2CC2(c2ccccc2)c2ccccc2)cc1 (centres unmarked),-3.93
12,CCN1C(=O)C(CC(=O)Nc2cccc(C)c2C)S/C1=N\c1cccc(C(C)=O)c1 (centres unmarked),-11.4
13,CN1CCN(CCCNc2nc3ccccc3c3nc(-c4ccccc4)nn23)CC1,-6.07
14,CCCCOc1ccc(C2(C(=O)O)CCCC2)cc1,-1.46
15,Nc1nncn1C(=O)COc1ccc(Cl)cc1,0.275
16,CN1C(=O)C(=Cc2cccn2-c2ccc(S(N)(=O)=O)cc2)C(=O)N(C)C1=O,-4.98
17,CCN1C(=O)c2ccc(S(=O)(=O)c3ccc(C(=O)O)cc3)cc2C1=O,3.27
18,CC1OC(Nc2ccc(-c3ccc(NC4OC(C)C(O)C(O)C4O)cc3)cc2)C(O)C(O)C1O (centres unmarked),-5.62
19,COC(=O)c1ccc(C2CC(=O)NC3=C2C(=O)CC(C)(C)C3)cc1 (centres unmarked),-7.98
20,O=C(CSc1nc(-c2ccco2)cc(C(F)(F)F)n1)NCCc1ccccc1,-6.55
21,O=C(Nc1c2c(nn1-c1ccc(F)cc1)CS(=O)(=O)C2)C1(c2ccc(Cl)cc2)CCCC1,-9.48
22,Cc1ccc(OCC(=O)Nc2ccccc2Br)c(C)c1,-0.545
23,CC(C)CCNC(=O)Cn1c(SCc2c(F)cccc2Cl)nc2ccncc21,2.65
24,Cc1onc(-c2c(Cl)cccc2Cl)c1C(=O)N1CCCC(C)C1 (centres unmarked),-2.87
25,CCc1nnc(NC(=O)CSc2nnc(CNC(=O)c3ccccc3F)o2)s1,-3.39
